Assay results published in PMC12136788.
Some of the results follow.

T1: UNK ZnF1-3 (human, UniProt Q9C0B0 31-174)
T1 sequence: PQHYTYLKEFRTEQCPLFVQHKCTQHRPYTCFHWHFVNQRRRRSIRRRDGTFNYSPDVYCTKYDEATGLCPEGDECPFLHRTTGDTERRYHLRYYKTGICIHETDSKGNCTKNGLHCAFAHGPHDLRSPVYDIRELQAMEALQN

B1: chr14:60920330:60920331:+_ENSMUSG00000021987_ENSMUST00000022563|mus_mus|FALSE|FALSE (ssRNA)
RNA: GGGAGUUCUACAGUCCGACGAUCGCAAAAUCUCCACUACCCGCACUUCCCUUUUUCCUUUACCUGAAAGUUUAUAGGCAGCUACAGUCAAGUUAAAAAUGUAUUUAGUACUCAGAACGCUUUAGAGCUUUGCCACUUUAAAUGCAACAGAGGAUUGAGCAUCA
B2: chr1:169080634:169080635:+_ENSG00000143153_ENST00000367816|hu_hu|FALSE|FALSE (ssRNA)
RNA: GGGAGUUCUACAGUCCGACGAUCGGUGAGCAGCAUCACUUGGAUGGUUCCGAUGAAGAUGCCAGCCAGGCAGCCAUAAAAUAUUACGUAGAAUAGAAGGAUCUUAAACCAACUGCCACCGGUCCUGCCCAGAAACUCCUUCUUCAACAGAGGAUUGAGCAUCA
B3: 59359030_59359150_1781_CDS_ENSG00000157450_ENST00000557998|human|control|control (ssRNA)
RNA: GGGAGUUCUACAGUCCGACGAUCGUGGUGGUGAUGAUGUUGAAAAUGGUGACCAUGCUGCUGAAAGCAACUUGUAUGAGGAUGUCCUAAUGCAUGGUGGUUCUGUGACGACCCUCCACAUGGUGAGUGCUGGGGACAGCAGGACAACAGAGGAUUGAGCAUCA
B4: chr17:65740002:65740003:+_ENSG00000130935_ENST00000581375|hu_hu|hu_hu_hu_mus_False|8_48 (ssRNA)
RNA: GGGAGUUCUACAGUCCGACGAUCAACAAAUCUUUCUUCCCUGGACGAACAGGAAGAUUCAUAUUAAAAAAAAUAUAUAUCCAUCAAGGAGAAUUGAGUGGCCACACCUUUACUCCCAGCACUUUGGGAAUAUAAUCUCUGAGUCAACAGAGGAUUGAGCAUCA
B5: chrX:160370135:160370136:+_ENSMUSG00000031367_ENSMUST00000069041|mus_hu|motif|central (ssRNA)
RNA: GGGAGUUCUACAGUCCGACGAUCAAUGAAGCGGCUUAGCAAAACAGUAAUACUGACAAGACAUCAUCUUACACCAUGAGCGGACAUGGACAUGAAGGGAGUGACCAUCUACAGUGUGUGAAAUGCCACAAGAAGUCAUCAACACAACAGAGGAUUGAGCAUCA
B6: 137892206_137892507_1962_CDS_ENSG00000113013_ENST00000297185|human|control|control (ssRNA)
RNA: GGGAGUUCUACAGUCCGACGAUCAUUUUCUCCUGUUUCGCUGUCUUUUCUAGCCAGGAGCUCCCUCAUUUUGGAAAUCUCUUCUUUCAGCUUGUUGCACUCAUCAGCAGGUAAUUGGUCCUUGAAUUCUUCCAUCUUGGUUUCCAACAGAGGAUUGAGCAUCA
B7: chr8:95500983:95500984:-_ENSG00000164944_ENST00000437199|hu_hu|hu_hu_hu_mus_True|68_98 (ssRNA)
RNA: GGGAGUUCUACAGUCCGACGAUCAGAACACAUCUAUUCGUGUAAAGACCGUACAUGACGGCCUCUAACCACUGCCUCACUAACAAACUUUCCUCUCGAGCCUCCACUGCCGCUAUUUGUACUAGCCCAGGACGGUCCCAGGCCCAACAGAGGAUUGAGCAUCA
B8: chr1:112309342:112309343:+_ENSG00000064703_ENST00000369702|hu_mus|FALSE|FALSE (ssRNA)
RNA: GGGAGUUCUACAGUCCGACGAUCUCUCCAGUACUCCUCAUAAUCCUGGUAAGUAUCAGAAAAACUUGCAGUUGUUUCCCUGUGACAGUCAUACCAACUCUCUUCCUGGGGUUCUGACUGUACUCGGUAAGAAGAACGCCGUGCCAACAGAGGAUUGAGCAUCA
B9: chr19:8913615:8913616:-_ENSMUSG00000071658_ENSMUST00000096259|mus_hu|mus_mus_mus_hu_False|38_68 (ssRNA)
RNA: GGGAGUUCUACAGUCCGACGAUCAGGGUACCAAAACCUUCUGCCUGAAAUGGGUGCCCCACCCAGUCAGGACUUGGAGCUGAAAGUAUCUGAUGCACUGACAGUUACUAUACGAAAGGAGGCCCCUGGGGAGGGCCAGGCCAGCAACAGAGGAUUGAGCAUCA
B10: chr17:65740002:65740003:+_ENSG00000130935_ENST00000581375|hu_hu|hu_hu_hu_mus_False|38_48 (ssRNA)
RNA: GGGAGUUCUACAGUCCGACGAUCAACAAAUCUUUCUUCCCUGGACGAACAGGAAGAUUCAUAUUAAAAAAAAUAUAUAUCCAUCAAGGAGAAUUGAUAAUAUCAGACUUUACUCCCAGCACUUUGGGAGGUGGAUCUCUGAGUCAACAGAGGAUUGAGCAUCA
B11: chr7:17501706:17501707:-_ENSMUSG00000019370_ENSMUST00000019514|mus_mus|FALSE|FALSE (ssRNA)
RNA: GGGAGUUCUACAGUCCGACGAUCCUCCAGUAGCGAAAGCAUGUUAGCUUCCAAGGCCUUCCUGCCUCUUCCCACCCUUCCACACACACAACCCCCCCCCCCGCCCCCCGUCCUGGGUCACAUCCUCAACUCCCUCGGUCCUGGCAACAGAGGAUUGAGCAUCA
B12: chr8:95952310:95952311:-_ENSG00000164938_ENST00000448464|hu_mus|FALSE|FALSE (ssRNA)
RNA: GGGAGUUCUACAGUCCGACGAUCUGGGGGAGGAGUGAUGAACCAGCUCUCCUCCAUUGGACAGGACUCAAACUGAAGGAAGCAGGAAUCACUGGUGUCAGUCAAGCAUUCCAAAGAUGCAGGUAAACAGGAGAAGACAGAAGUCAACAGAGGAUUGAGCAUCA
B13: chr6:38652254:38652255:-_ENSG00000124767_ENST00000373365|hu_hu|hu_hu_hu_mus_False|18_78 (ssRNA)
RNA: GGGAGUUCUACAGUCCGACGAUCCGAGAACUUCAUAGCAGGGAAGUCAAGCUUCUGGAUUAGCGUCAGUCCAAGAACCCUCGUAUAAAAAUCCAGGGACUUCUUAGGAUCCUUAAUUCGUAGCAUGGUUUGCUGCAGUAGAAACAACAGAGGAUUGAGCAUCA
B14: chr4:17845017:17845018:+_ENSG00000109805_ENST00000514176|hu_mus|hu_hu_hu_mus_False|1_68 (ssRNA)
RNA: GGGAGUUCUACAGUCCGACGAUCGCUCUCUUAACUUGUAUCUUCAUUAAGGAACUCUGCAAGGUUAGUUUACUUUUUCUGUAGCGCAGCUGUUUUGGCUCGUCUGGGUAAUCUCAUCUUCAUUUCUGAUGGUGGUUUGGAACUCAACAGAGGAUUGAGCAUCA

Target: T1, UNK ZnF1-3
Experiment: nsRBNS (natural sequence RNA bind-n-seq); RBNS binding buffer (assumed for nsRBNS): 25 mM Tris pH 7.5, 150 mM KCl, 3 mM MgCl2, 0.01% Triton X-100, 500 ug/ml BSA, 20 U/ml SUPERase-In, 4 C; UNK is unkempt and MSI1 is Musashi-1; names of the RNAs are library labels; protein concentration not given here; high values mean tight binding

Binder | binding signal [enrichment R]
B1 | 1.3
B2 | 2.19
B3 | 1.2
B4 | 2.18
B5 | 1.42
B6 | 0.307
B7 | 0.884
B8 | 0.911
B9 | 1.25
B10 | 1.33
B11 | 1.16
B12 | 1.15
B13 | 0.978
B14 | 0.407
